These results are taken from article PMC5496739.

Protein sequences, listed by entry. Tags and fused reporters are not part of them.
UniProt P60881: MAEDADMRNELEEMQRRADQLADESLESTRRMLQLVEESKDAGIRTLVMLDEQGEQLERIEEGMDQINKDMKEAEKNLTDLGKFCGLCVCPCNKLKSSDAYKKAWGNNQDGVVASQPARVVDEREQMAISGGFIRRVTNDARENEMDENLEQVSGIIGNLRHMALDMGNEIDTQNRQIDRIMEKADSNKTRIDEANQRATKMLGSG
UniProt Q62825: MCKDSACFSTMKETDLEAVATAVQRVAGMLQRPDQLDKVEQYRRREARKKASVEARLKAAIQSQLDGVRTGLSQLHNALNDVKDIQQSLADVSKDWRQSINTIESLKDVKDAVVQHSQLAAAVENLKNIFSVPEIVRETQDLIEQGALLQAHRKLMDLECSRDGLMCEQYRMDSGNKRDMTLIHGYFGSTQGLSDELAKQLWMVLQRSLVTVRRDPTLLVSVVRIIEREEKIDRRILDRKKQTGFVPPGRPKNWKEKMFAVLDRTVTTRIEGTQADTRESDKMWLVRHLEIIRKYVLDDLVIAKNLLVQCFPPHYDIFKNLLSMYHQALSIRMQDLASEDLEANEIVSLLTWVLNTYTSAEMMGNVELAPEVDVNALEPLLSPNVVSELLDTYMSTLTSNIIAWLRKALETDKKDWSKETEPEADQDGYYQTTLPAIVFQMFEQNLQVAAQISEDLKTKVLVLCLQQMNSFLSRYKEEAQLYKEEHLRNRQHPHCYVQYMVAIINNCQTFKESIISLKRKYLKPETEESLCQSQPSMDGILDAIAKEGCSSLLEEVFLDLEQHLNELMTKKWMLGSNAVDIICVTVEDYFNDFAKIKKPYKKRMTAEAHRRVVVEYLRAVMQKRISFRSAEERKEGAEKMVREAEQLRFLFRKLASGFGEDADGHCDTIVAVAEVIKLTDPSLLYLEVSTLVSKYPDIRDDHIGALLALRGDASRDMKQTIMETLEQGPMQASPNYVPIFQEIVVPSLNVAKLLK
UniProt Q9QYF3: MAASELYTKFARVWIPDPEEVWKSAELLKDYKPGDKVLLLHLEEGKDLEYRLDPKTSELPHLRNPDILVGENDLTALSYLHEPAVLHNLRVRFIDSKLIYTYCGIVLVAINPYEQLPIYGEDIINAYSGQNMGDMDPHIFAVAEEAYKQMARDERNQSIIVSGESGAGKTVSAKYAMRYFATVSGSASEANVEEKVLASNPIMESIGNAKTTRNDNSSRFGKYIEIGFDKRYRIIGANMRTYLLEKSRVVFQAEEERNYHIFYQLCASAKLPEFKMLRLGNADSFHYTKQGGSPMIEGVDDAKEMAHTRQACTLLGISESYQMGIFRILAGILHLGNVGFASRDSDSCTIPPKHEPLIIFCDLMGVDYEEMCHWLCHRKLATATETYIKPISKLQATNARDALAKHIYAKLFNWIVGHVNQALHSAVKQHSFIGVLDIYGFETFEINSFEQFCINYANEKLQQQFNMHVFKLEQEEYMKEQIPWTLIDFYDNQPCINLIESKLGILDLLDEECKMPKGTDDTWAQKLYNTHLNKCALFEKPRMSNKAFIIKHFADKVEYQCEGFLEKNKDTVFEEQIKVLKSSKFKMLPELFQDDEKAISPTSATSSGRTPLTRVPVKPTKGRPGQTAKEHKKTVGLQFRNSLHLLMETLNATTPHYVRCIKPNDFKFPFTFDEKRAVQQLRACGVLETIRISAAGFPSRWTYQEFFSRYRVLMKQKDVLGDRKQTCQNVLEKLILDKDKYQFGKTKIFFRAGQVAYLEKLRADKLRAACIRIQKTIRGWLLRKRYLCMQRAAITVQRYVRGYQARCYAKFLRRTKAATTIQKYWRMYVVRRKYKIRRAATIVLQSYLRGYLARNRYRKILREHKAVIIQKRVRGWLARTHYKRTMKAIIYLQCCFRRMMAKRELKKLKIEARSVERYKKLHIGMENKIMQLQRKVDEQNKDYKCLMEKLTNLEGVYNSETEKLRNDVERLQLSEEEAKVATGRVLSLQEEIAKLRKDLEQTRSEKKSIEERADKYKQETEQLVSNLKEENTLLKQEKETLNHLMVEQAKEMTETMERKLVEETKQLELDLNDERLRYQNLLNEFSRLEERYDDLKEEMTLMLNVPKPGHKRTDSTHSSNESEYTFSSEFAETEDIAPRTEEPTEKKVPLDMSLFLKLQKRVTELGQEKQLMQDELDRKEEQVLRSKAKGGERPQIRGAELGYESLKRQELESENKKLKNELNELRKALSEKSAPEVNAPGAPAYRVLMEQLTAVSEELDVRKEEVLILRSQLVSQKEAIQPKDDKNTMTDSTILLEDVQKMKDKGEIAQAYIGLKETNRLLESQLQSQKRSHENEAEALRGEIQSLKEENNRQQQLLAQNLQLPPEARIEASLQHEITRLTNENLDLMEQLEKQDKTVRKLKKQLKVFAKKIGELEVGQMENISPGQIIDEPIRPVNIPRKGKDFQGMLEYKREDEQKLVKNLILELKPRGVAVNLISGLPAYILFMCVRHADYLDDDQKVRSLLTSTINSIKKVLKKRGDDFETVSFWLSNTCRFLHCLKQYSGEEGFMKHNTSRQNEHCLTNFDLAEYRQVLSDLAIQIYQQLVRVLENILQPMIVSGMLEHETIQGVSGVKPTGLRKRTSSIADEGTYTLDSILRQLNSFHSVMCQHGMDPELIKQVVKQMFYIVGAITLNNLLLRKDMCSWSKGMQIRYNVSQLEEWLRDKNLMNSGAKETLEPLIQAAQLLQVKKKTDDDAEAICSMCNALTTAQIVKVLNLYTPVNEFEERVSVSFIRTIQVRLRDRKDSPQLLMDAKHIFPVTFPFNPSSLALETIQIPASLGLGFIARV
UniProt P27732: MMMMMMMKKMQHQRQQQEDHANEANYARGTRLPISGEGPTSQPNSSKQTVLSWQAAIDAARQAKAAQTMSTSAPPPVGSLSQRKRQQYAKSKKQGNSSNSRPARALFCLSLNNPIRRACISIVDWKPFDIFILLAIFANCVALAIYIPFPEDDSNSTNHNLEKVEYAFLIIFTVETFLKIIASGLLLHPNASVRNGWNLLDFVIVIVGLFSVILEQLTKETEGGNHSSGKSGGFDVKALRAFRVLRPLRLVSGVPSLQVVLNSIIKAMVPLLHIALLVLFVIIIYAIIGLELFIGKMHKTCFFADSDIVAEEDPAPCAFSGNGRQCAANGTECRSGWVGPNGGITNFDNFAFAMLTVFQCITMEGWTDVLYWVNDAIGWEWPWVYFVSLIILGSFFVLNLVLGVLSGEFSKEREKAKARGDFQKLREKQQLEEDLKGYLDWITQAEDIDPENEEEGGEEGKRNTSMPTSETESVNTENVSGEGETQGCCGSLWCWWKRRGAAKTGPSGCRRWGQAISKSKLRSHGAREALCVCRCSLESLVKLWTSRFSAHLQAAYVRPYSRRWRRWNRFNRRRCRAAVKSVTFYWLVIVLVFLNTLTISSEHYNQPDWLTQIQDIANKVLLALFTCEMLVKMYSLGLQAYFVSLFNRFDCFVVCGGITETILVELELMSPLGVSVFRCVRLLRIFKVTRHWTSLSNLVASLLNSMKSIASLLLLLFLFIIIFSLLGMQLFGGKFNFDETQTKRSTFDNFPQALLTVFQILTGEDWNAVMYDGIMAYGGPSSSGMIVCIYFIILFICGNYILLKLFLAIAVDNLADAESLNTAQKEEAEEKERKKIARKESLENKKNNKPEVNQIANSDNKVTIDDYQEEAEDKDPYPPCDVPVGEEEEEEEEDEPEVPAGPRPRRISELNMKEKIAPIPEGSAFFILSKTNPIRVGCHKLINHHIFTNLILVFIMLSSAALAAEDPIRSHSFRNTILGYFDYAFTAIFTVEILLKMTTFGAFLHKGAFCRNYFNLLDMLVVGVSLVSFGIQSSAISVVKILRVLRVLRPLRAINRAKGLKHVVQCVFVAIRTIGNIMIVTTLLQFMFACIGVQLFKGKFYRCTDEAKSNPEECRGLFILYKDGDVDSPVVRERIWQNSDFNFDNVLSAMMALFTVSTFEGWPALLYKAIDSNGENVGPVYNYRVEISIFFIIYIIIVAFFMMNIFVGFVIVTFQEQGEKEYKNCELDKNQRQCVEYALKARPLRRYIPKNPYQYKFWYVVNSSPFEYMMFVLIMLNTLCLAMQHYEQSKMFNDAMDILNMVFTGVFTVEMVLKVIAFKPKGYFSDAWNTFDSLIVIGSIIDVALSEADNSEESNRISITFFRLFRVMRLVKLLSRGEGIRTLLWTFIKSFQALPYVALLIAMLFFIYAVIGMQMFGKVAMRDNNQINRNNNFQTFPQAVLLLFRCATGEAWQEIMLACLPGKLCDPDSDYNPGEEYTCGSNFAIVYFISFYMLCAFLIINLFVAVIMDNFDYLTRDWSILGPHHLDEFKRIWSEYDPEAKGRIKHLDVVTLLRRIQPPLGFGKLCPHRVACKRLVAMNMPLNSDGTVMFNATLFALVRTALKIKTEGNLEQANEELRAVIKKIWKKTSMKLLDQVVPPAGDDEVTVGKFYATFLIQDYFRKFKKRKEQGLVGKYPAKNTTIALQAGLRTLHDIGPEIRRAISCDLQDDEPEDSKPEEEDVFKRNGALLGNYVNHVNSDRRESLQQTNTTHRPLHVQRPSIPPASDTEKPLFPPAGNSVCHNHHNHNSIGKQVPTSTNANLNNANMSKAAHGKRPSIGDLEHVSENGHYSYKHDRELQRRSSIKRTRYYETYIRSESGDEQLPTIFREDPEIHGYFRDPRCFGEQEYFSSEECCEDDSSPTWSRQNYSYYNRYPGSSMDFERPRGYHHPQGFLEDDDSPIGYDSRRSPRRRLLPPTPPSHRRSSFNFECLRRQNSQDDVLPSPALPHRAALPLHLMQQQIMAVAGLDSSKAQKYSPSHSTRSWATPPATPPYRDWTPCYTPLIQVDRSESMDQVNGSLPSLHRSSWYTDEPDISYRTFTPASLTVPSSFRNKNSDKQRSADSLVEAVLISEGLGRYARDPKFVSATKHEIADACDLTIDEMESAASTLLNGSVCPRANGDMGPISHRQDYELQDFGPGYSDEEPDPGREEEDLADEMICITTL

What all share (experiment): co-IP; INS-1 832/13 cells infected with adenoviruses expressing HA-RIM-BP2 and GFP, MEF-exophilin-8 (WT or PA (ABD)) or MEF-exophilin-3; anti-FLAG immunoprecipitates blotted for endogenous proteins
For experiment [1], the target named is T1, MEF-exophilin-8 (wild type) (mouse) (UniProt Q8K3I4).
T1 sequence: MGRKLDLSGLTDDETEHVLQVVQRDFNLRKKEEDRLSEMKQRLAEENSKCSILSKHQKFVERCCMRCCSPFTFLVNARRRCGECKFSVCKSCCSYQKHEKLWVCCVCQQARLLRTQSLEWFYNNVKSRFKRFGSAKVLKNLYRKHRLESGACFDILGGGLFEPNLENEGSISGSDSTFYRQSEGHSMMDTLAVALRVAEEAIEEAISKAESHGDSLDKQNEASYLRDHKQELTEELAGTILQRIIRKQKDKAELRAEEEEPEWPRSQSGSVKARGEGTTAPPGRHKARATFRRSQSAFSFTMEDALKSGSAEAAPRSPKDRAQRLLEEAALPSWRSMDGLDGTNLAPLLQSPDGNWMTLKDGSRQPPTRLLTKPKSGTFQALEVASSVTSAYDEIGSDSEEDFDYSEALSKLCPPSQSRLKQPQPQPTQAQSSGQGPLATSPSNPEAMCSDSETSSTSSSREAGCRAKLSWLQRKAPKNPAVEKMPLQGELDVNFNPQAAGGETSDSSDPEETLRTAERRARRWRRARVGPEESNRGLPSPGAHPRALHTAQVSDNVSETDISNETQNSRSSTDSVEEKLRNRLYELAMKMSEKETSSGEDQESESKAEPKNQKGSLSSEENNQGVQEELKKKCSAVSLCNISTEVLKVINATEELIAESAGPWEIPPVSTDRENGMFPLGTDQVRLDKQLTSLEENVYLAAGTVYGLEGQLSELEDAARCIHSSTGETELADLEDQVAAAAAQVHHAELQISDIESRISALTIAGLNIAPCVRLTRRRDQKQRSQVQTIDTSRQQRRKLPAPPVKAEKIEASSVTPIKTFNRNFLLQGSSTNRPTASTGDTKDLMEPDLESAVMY

Experiment [2] concerns the target T2, MEF-exophilin-8 PA (ABD) mutant (mouse) (UniProt Q8K3I4).
T2 sequence: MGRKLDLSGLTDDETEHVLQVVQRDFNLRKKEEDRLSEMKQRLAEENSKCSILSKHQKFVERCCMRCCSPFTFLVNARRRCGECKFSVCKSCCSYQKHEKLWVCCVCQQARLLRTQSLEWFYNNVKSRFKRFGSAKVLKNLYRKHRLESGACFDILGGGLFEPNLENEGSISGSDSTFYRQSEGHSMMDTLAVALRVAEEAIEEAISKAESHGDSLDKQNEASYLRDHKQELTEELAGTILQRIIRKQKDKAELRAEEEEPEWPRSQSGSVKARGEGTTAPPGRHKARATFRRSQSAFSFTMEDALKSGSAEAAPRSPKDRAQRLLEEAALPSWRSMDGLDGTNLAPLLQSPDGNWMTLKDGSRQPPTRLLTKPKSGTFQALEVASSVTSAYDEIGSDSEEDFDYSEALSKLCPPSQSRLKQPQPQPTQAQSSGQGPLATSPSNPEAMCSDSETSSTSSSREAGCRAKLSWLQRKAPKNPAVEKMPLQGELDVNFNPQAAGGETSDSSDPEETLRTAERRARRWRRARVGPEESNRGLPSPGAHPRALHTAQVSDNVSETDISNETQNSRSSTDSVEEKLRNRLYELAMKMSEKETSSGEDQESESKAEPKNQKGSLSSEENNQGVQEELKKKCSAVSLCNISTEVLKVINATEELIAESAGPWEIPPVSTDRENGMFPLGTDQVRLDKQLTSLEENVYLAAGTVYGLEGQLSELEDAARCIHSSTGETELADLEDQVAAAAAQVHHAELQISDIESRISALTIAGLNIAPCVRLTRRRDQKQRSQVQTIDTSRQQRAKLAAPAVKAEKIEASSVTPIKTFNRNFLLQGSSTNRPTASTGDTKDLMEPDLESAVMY

Experiment [3] concerns the target T3, MEF-exophilin-3 (UniProt Q91V27).
T3 sequence: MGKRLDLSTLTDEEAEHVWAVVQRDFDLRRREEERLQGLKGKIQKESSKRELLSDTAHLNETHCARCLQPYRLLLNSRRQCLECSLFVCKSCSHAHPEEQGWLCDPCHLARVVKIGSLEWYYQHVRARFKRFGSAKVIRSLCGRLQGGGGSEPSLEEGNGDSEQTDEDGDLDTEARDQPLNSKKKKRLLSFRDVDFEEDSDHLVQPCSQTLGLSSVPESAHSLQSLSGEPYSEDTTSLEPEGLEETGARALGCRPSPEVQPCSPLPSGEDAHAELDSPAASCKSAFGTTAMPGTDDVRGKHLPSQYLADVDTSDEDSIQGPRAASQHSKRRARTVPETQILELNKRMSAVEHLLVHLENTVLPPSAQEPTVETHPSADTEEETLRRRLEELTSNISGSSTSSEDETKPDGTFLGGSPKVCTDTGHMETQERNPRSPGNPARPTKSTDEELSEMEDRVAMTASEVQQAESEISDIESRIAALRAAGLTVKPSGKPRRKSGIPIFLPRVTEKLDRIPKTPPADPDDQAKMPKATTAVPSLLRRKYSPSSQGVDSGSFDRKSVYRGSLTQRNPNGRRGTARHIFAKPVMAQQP

Results are given in words; binding and its absence hold for the method and conditions named. Binding seen in cells or lysates may run through a third protein. Some entries that bind do so weakly or less than the wild type. For some of these results: Where a sequence is shown, tags or fusion partners need not be part of it.

Consider “SNAP25, endogenous in INS-1 832/13 cells (from UniProt P60881 1-206)”, for which the binding result in experiment [1] and in experiment [2] was “no binding” throughout.
Take “Sec6, endogenous in INS-1 832/13 cells (from UniProt Q62825 1-755)”: the binding entry in experiment [1] and in experiment [2] was “binds” throughout.
On to “myosin-Va, endogenous in INS-1 832/13 cells (from UniProt Q9QYF3 1-1828)”, for which the binding entry is “binds” in experiment [3], “no binding” in experiment [1] and “no binding” in experiment [2].
For the molecule “Cav1.3, endogenous in INS-1 832/13 cells (from UniProt P27732 1-2203)”, the binding result in experiment [2] is given as “no binding”.
For “Munc13-1, endogenous in INS-1 832/13 cells (from UniProt Q62768 1-1735)”, the binding result in experiment [2] was “no binding”.

B1: Rab27a, endogenous in INS-1 832/13 cells (protein, UniProt P23640 1-221)
chain: MSDGDYDYLIKFLALGDSGVGKTSVLYQYTDGKFNSKFITTVGIDFREKRVVYRANGPDGTVGRGQRIHLQLWDTAGQERFRSLTTAFFRDAMGFLLLFDLTNEQSFLNVRNWISQLQMHAYCENPDIVLCGNKSDLEDQRAVKEEEARELAEKYGIPYFETSAANGTNISQAIEMLLDLIMKRMERCVDKSWIPEGVVRSNGHTSTDQLSEEKEKGLCGC
Take B1: the binding result in experiment [1] and in experiment [2] was “binds” throughout.

B2: HA-RIM-BP2 (protein, UniProt Q80U40 1-1072)
chain: MREAAERRQQLELEHEQALAFLNAKQQEIQLLQQAQVEAKKEHEGAVQLLESKVRELEEKCRVQSEQFNLLSRDLEKFRQHTGSIDLLGSSSVALLDVPLAPGKPFPQYMNGLATSIHKGHEGPTGHYSVIGDYIPLSGDKLESPCVKPSFLLRSSSPRCRFESEMDNDRNSNNSKQSSSGKVHLCVARYSYNPFDGPNENPEAELPLTAGKYLYVYGDMDEDGFYEGELLDGQRGLVPSNFVDFIQDNESRLAGTLGSEQDQNFLNHSGISLERDSILHLHSPTQVDSGITDNGGGTLDVNIDDIGEDTVPYPRKITLIKQLAKSVIVGWEPPAVPPGWGTVSSYNVLVDKETRMSLALGRRTKALIEKLNTAACTYRISVQCVTSRGNSDELQCTLLVGKDVVVAPSQLRVDNITQISAQLSWLPTNSNYSHIIFLNEEELDIVKAARYKYQFFNLRPNMAYKVKVLAQPHQMPWQLPLEQREKKEACVEFSTLPAGPPAPPQDVTVHAGATAASVQVSWKPPALTPTGLSNGANVTGYGVYAKGQRVAEVIAPTADGTAVELIRLRSLEAKAVSVRTLSVQGESMDSALAAIPPDLLVPPAPHPRTAPPPKPLASDMDTKDQHLGPHVKVDESWEQSRSPGPAHGHMLEPPDMHSAGPGRRSPSPSRILPQPQGAPVSTTVAKAMAREAAQRVAESNRLEKRSLFLEQSSAGQYTNSDEEDGYASPEVKRRGTSVDDFLKGSELGKQPHCCHGDEYHTESSRGSDLSDIMEEDEEELYSEMQLEDGGRRRPSGTSHNALKILGNSTLMGRADRMEHVSRRYSHSGGGSHRHRPAMAPSIDEYTGRDHLSPDFYDESETDPGAEELPARIFVALFDYDPLTMSPNPDAAEEELPFKEGQIIKVYGDKDADGFYRGETCARLGLIPCNMVSEIHADDEEMMDQLLRQGFLPLNTPVEKIERSRRSGRGHSVPTRRMVALYDYDPRESSPNVDVEAELPFCTGDIITVFGEIDEDGFYYGELNGQKGLVPSNFLEEVPDDVEVHLSDAPPHYSHDPPMRSKAKRKKSVHFTP
Regarding B2, the binding entry in experiment [1] was “binds”; in experiment [2] it was “no binding”.
